Laboratory results reported in publication PMC7819943, “Rice protein-binding microarrays: a tool to detect cis-acting elements near promoter regions in rice”.
This is one part of the list.

Each sequence was assayed against T1, OsWOX13 (Oryza sativa, UniProt Q5QMM3 1-267) (assay: protein-binding microarray (RPBM); PBS, 2% BSA, 51.3 ng/ul salmon testes DNA, 50 uM zinc acetate, 200 nM TF, 25 C, 1 h; high values mean tight binding). Details: protein: recombinant; tags: N-terminal polyhistidine and DsRed monomer fusion (pET32a); label: CyDye5-dUTP incorporated in the synthesized complementary strand; 3' TTTTT single-stranded linker to array surface; dsDNA, one strand shown.
T1 sequence: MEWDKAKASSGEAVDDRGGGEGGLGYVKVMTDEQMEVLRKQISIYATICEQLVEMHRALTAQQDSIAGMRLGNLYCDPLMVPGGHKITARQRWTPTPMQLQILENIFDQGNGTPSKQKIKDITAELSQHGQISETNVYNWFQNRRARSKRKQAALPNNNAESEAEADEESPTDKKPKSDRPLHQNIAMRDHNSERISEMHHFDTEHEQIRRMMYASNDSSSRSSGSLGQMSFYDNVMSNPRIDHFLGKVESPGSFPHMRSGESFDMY
Summary of the method: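 Ni–NTA purification followed expression in E. coli BL21-CodonPlus of transcription factors fused N-terminally to a polyhistidine tag and DsRed. At 200 nM in PBS with 2% BSA, salmon testes DNA and 50 µM zinc acetate, the protein was incubated for 1 h at 25 °C with a custom Agilent array that had been primer-extended with Cy5-dUTP and blocked with 2% BSA. After washing, the array was read on an Axon 4000B scanner. The binding signal is per-feature fluorescence intensity in arbitrary units.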

| Sequence | binding signal |
| --- | --- |
| TGATGATTTGTGTGTACTAATTCCACTGAAACTTTCAAGGCGGAGTCACCTAGTGCAG | 34400 fluorescence intensity (a.u.) |
| TTGTAATTTCTAGAAATGGCATTGAGGAAATTACCAGTCTCGGAGTCACCTAGTGCAG | 7620 fluorescence intensity (a.u.) |
| TTGGATTGGTTACTATGTTTGCATTTACACTATTTATTATCGGAGTCACCTAGTGCAG | 8100 fluorescence intensity (a.u.) |
| CTTCATTAATTTTGGCCAAATATGATAATGTAGTGATGTTCGGAGTCACCTAGTGCAG | 7330 fluorescence intensity (a.u.) |
| AAGATTAAATTTTGCTTCATGTACCACGTGAATACCACGTCGGAGTCACCTAGTGCAG | 20700 fluorescence intensity (a.u.) |
| GAATAATTATTACACAATGCTAATTAATTTCACAATATTGCGGAGTCACCTAGTGCAG | 38800 fluorescence intensity (a.u.) |
| GGTGATTAGTCCACACTAACCAATAATGGTGACGGACGCTCGGAGTCACCTAGTGCAG | 15800 fluorescence intensity (a.u.) |
| AGATAATTGAATAGGAGATGAGAGGATGGGAGGGTCAGAGCGGAGTCACCTAGTGCAG | 36600 fluorescence intensity (a.u.) |
| TTTAAATTTACCAACTATTTTGCAGGGCAAGTTTAGGCATCGGAGTCACCTAGTGCAG | 7890 fluorescence intensity (a.u.) |
| TATTGTCAATTACAGGTCTAATTGTTTTATTTGGGTGATTCGGAGTCACCTAGTGCAG | 37200 fluorescence intensity (a.u.) |
| GCACACCCTAATTTGCTTTACCTAGGCCGTGTTTAGTTCCCGGAGTCACCTAGTGCAG | 4770 fluorescence intensity (a.u.) |
| GAGAGATTGGGGAGATTGTCACTCGTTTTCCGCGCACACGCGGAGTCACCTAGTGCAG | 10200 fluorescence intensity (a.u.) |
| CGTAGATTAATAACAAAACAAATTACATATTCCACCTGTACGGAGTCACCTAGTGCAG | 30600 fluorescence intensity (a.u.) |
| TTCTGGGTTAATTGGATCCATGCCATTATAAATTTGCTAGCGGAGTCACCTAGTGCAG | 30900 fluorescence intensity (a.u.) |
| GTTGATTTGTGTTTTGACTTTTGAAAAGACTACTGTTACTCGGAGTCACCTAGTGCAG | 27500 fluorescence intensity (a.u.) |
| TAAATGATTTCTAGATTTGGCAATAGAACGGTCAGTTGATCGGAGTCACCTAGTGCAG | 10900 fluorescence intensity (a.u.) |
| ATAATAGTTAATATTTAATTAATCATGTGCTAATAAACTTCGGAGTCACCTAGTGCAG | 5240 fluorescence intensity (a.u.) |
| AGATTAATCATATAAAATTAATGTTATTAGATTTATCATTCGGAGTCACCTAGTGCAG | 27100 fluorescence intensity (a.u.) |
| ACCCATATAATTAAGGTGCCAATGCTGCTAATACTCTCTCCGGAGTCACCTAGTGCAG | 4380 fluorescence intensity (a.u.) |
| ATGTTGATTGTCTAAAATCACAGATTTAGCACATTATCGACGGAGTCACCTAGTGCAG | 29800 fluorescence intensity (a.u.) |
| CAACAAATTCATCATAATTTCCGCCGCAAATGTCACACATCGGAGTCACCTAGTGCAG | 5240 fluorescence intensity (a.u.) |
| TATAGACTAATTAGGTTCAAAAGATTCGTCTTGTTATTTCCGGAGTCACCTAGTGCAG | 10700 fluorescence intensity (a.u.) |
| TGTTATATTTTCAATGACATGGATTGAATTAAACCCTTACCGGAGTCACCTAGTGCAG | 4740 fluorescence intensity (a.u.) |
| TTGATTGAAATTGGAGATGATGTGACTGAAAAGTTGTGTGCGGAGTCACCTAGTGCAG | 41800 fluorescence intensity (a.u.) |
| CATCTGGCGATTGCATATTAATTTGCATGGCGAAGCTTCCCGGAGTCACCTAGTGCAG | 5830 fluorescence intensity (a.u.) |
| CATGTTAATTTAAGATGATAGTCGGAATCCTAATTGCAGCCGGAGTCACCTAGTGCAG | 28900 fluorescence intensity (a.u.) |
| AGCTGTTAGACTGCAATCTTAATTGCTGCATCGTTTCACTCGGAGTCACCTAGTGCAG | 12100 fluorescence intensity (a.u.) |

| Sequence | binding signal |
| --- | --- |
| GCATCGGAATTTTGGATGTGATTGCCTGCATCGGATGGATCGGAGTCACCTAGTGCAG | 18200 fluorescence intensity (a.u.) |
| TGTTATTATCCCAATTAACAAAACACGAGACCACATTTTACGGAGTCACCTAGTGCAG | 3240 fluorescence intensity (a.u.) |
| ATGTTTACTAGTTAACTAGCATTCCTTTAATTTCATATTTCGGAGTCACCTAGTGCAG | 5090 fluorescence intensity (a.u.) |
| GGATGTCATGATAATTGACTTATGACAATGTGATTATTTCCGGAGTCACCTAGTGCAG | 19700 fluorescence intensity (a.u.) |
| TCGGGATTGAAACCAAGCACCCCTTGCCACCACACTAGCACGGAGTCACCTAGTGCAG | 13800 fluorescence intensity (a.u.) |
| TTTAGGTGATTAGCCTGTTGTATTGCGATTTTCTATATGGCGGAGTCACCTAGTGCAG | 23800 fluorescence intensity (a.u.) |
| TCATTTTAATTGACGCTTTGGACAATGACACGTTCTACAACGGAGTCACCTAGTGCAG | 29200 fluorescence intensity (a.u.) |
| ACGGGGTAGGTAATTGGGAGAGAATTCCTCCTTTACTTTTCGGAGTCACCTAGTGCAG | 5100 fluorescence intensity (a.u.) |
| CATTGATCAATTATGGCTTTAAATATAAATATACCACCAGCGGAGTCACCTAGTGCAG | 29500 fluorescence intensity (a.u.) |
| GTAGGAAATCACCACCAATCCCACCGATTCCTCTCCACCGCGGAGTCACCTAGTGCAG | 3450 fluorescence intensity (a.u.) |
| CTAATTAAAACCGTTATAATAGGTTCTATGACAGTATTGCCGGAGTCACCTAGTGCAG | 6250 fluorescence intensity (a.u.) |
| ATTAACCATAACCTAATTTGGATAAGCCGACATGGATCGGCGGAGTCACCTAGTGCAG | 8230 fluorescence intensity (a.u.) |
| CTTTTGGTATGCTTGATTGTTGTGTTTTGATCCTACAAATCGGAGTCACCTAGTGCAG | 4580 fluorescence intensity (a.u.) |
| ATGCTAACTTGAGGTGATCATAATCCTGATTGCATCTCATCGGAGTCACCTAGTGCAG | 6000 fluorescence intensity (a.u.) |
| TTGGCTGAACATCATAGTTTTGATTGAGCCCACAGCAGAACGGAGTCACCTAGTGCAG | 4280 fluorescence intensity (a.u.) |
| TTCAGATGTATATATAATTAATTGTACTCCTAGTGCACACCGGAGTCACCTAGTGCAG | 13800 fluorescence intensity (a.u.) |
| TTTTGACTGCAGAATCCTAATCCATTCTCTCACATGGCAGCGGAGTCACCTAGTGCAG | 16300 fluorescence intensity (a.u.) |
| CCACGTAACATCCATTAAATTACTTGGAGTCTTCCTCGCACGGAGTCACCTAGTGCAG | 6050 fluorescence intensity (a.u.) |
| TTTTCATCTTAATTATACAGGTAGCAAGAACTGGCATGGCCGGAGTCACCTAGTGCAG | 3780 fluorescence intensity (a.u.) |
| GGAGGACATTGTGATTGGAAATAAATAGATGCAGAGGCAACGGAGTCACCTAGTGCAG | 22600 fluorescence intensity (a.u.) |
| TATTATTGTTTGTCATTAGCAATCTTAAGTTATGCATAGACGGAGTCACCTAGTGCAG | 5930 fluorescence intensity (a.u.) |
| TGTAATTGGCTGAGAGACCGTAACAACGTGACATGGCTCACGGAGTCACCTAGTGCAG | 29700 fluorescence intensity (a.u.) |
| CCTTTTGTGACCGGTTTTGATTAGTTATGGGACGCGGAATCGGAGTCACCTAGTGCAG | 5300 fluorescence intensity (a.u.) |
| AATTCAATTAGAATGACAATGTAGAAGTGCTAAATTATCACGGAGTCACCTAGTGCAG | 9940 fluorescence intensity (a.u.) |
| ACCTCAATGATTAATTTGCTCGTGGGCCCCACCCCACCACCGGAGTCACCTAGTGCAG | 42500 fluorescence intensity (a.u.) |
| GGATAAAATTTAAATTGTACCAGTTTACGACGAATTACATCGGAGTCACCTAGTGCAG | 8600 fluorescence intensity (a.u.) |
| ATCCCTAATACGATTTACATGATTAGAGGAGAGACAATTTCGGAGTCACCTAGTGCAG | 4470 fluorescence intensity (a.u.) |
